In PubChem BioAssay AID2451 (National Center for Advancing Translational Sciences (NCATS), 2010):
Values joined by “and” are separate entries in the source; they are usually repeats but may differ in a detail not shown here. Equal entries are not always repeated. The campaign covered roughly 290,000 compounds. About 2,100 (0.72%) were called active. Inconclusive means that the source gave no clear call. Such entries were picked first, then a sample of the others. The call rests on the fitted dose curve; in most records, active means well fitted inhibition curve with a large enough effect; inconclusive means small, poorly fitted or top-dose-only effect, or effect the other way; inactive means flat fitted curve, though single readings scatter. A potency beside an inconclusive call is a rough fit, not a confirmed value.
Further: nearly all actives have a fitted effect of over 55% in size.
On the % scale 0 is the no-effect control and ±100 the full control effect; potency means the concentration at half of the fitted maximal effect; tags describe the fitted curve by direction and shape.

What follows are compounds tested against Fructose-bisphosphate aldolase (Giardia intestinalis (strain ATCC 50803 / WB clone C6)) (UniProt A8B2U2) (assay: qHTS Assay for Inhibitors of Fructose-1,6-bisphosphate Aldolase from Giardia Lamblia). Settings: purified Giardia FBPA; activity, negative = inhibition: at 59.6 µM (top of the series) unless noted.
Sequence of UniProt A8B2U2 (A8B2U2 whole entry, looked up): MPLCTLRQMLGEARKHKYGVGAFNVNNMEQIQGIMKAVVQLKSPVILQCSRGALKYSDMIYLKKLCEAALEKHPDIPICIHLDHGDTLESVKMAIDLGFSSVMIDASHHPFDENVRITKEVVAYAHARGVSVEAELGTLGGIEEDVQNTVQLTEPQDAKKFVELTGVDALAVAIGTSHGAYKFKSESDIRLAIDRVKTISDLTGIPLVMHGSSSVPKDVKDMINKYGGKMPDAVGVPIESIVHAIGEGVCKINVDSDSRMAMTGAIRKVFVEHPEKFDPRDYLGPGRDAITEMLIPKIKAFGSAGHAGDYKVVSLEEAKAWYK
Method in brief: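 Giardia FBPA (40 nM reagent) was preincubated 10 min at RT with compound (up to 57.5 uM final), then substrate plus GAPDH/TPI/NAD/arsenate coupling system with diaphorase/resazurin was added; resorufin fluorescence (525/598 nm) was read after 20 min.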
For `O=C(NC1CCCC1)c1ccc(CN2CCOCC2)cc1`, the Potency was “inactive”.
In the case of `CCOc1ccc(N/C(C)=C/C(=O)c2ccc3c(c2)OCCO3)cc1`, the Potency is reported as inconclusive: 11.2 µM [inhibitor, partial curve].
For `CC(C)(C)CC(=O)Nc1nnc(-c2cccs2)s1`, the Potency was “inactive”.
With `Cc1nc(SCc2ccc(Cl)c(Cl)c2)n[nH]1` the Potency was inconclusive: 31.6 µM [inhibitor, single point].
For `Cc1oc(-c2cccc(Cl)c2)nc1CN(C)C1CCOC1` (stereo not drawn), the Potency was “inactive”.
For `O=C(O)c1cc(Cl)c(Cl)cc1C(=O)Nc1cccc2cccnc12`, the Potency was inconclusive: 19.9 µM [inhibitor, partial curve].
In the case of `COc1cccc(-n2c(/C=C/c3ccccn3)nc3ccccc3c2=O)c1`, the Potency is reported as “inactive”.
In the case of `NC(N)=NC(=S)Nc1ccc(Cl)cc1`, the Potency is reported as inconclusive: 22.4 µM [inhibitor, partial curve].
In the case of `O=C(Nc1sc2c(c1C(=O)NCc1cccnc1)CCCC2)c1ccco1`, the Potency is reported as “inactive”.
With `S=C(Nc1cccc2ccccc12)NN1CCOCC1` the Potency was inconclusive: 14.1 µM [inhibitor, partial curve].
`O=C(CN1CCN(c2ccccn2)CC1)Nc1ccc(F)cc1F` was tested, and the Potency was “inactive”.
In the case of `N#CCSC1=Nc2ccccc2C2=NC(CCC(=O)N3CCN(c4ccccc4)CC3)C(=O)N12` (stereo not drawn), the Potency is reported as inconclusive: 17.7 µM [inhibitor, single point].
For `COc1ccc(Cl)cc1NC(=O)C/C(C)=N/NC(=O)CCc1ccccc1`, the Potency was “inactive”.
With `OCCN1CCN(CCOc2ccccc2-c2ccccc2)CC1` the Potency was inconclusive: 15.8 µM [inhibitor, single point].
In the case of `SC(COCc1ccccc1)CN1CCN(Cc2ccc3c(c2)OCO3)CC1` (stereo not drawn), the Potency is reported as inconclusive: 19.9 µM [inhibitor, single point].
With `CNNC` the Potency was active: 11.2 µM.
In the case of `Cc1nc2sccn2c1P(c1c(C)nc2sccn12)c1c(C)nc2sccn12`, the Potency is reported as “inactive”.
With `Cc1ccc2cccc(NC(=S)NC(=O)c3ccn(C)n3)c2n1` the Potency was inconclusive: 15.8 µM [inhibitor, partial curve].
`CCOC(=O)N1CCN(C(=O)CCCCn2c(=S)[nH]c3ccsc3c2=O)CC1` was tested, and the Potency was inconclusive: 17.7 µM [inhibitor, single point].
For `NC(=O)c1cccc(-c2cccc(OC(=O)NC3CCCCC3)c2)c1`, the Potency was “inactive”.
For `Cc1nc2ccc(NC(=S)NC(C)C)cc2nc1C`, the Potency was inconclusive: 15.8 µM [inhibitor, partial curve].
`Cc1cccc(NC(=S)NCCc2ccccc2)n1` was tested, and the Potency was inconclusive: 15.8 µM [inhibitor, single point].
In the case of `COc1cccc(OC)c1C(=O)Nc1cc(C)nn1-c1nc2ccccc2[nH]1`, the Potency is reported as inconclusive: 17.7 µM [inhibitor, single point].
With `COc1cc2nc(CN(C)Cc3nc4ccccc4c(=O)[nH]3)[nH]c(=O)c2cc1OC` the Potency was inconclusive: 5 µM [inhibitor, full curve].
With `O=C1C=CC(=O)c2c(O)cccc21` the Potency was inconclusive: 5.61 µM [inhibitor, partial curve] and inconclusive: 3.54 µM [inhibitor, partial curve].
With `COc1ccc2ccccc2c1CN1CCSCC1` the Potency was inconclusive: 15.8 µM [inhibitor, partial curve].
`Cc1ccc(NC(=O)CN(C)C2CCCCC2)cc1Br` was tested, and the Potency was inconclusive: 15.8 µM [inhibitor, partial curve].
In the case of `Cc1ccc(-c2csc(NC(=O)C3CC=CCC3C(=O)O)c2C(=O)OC(C)C)cc1` (stereo not drawn), the Potency is reported as inconclusive: 17.7 µM [activator, partial curve].
`CC1(C)SC2c3ccccc3C(=O)N2[C@@H]1C(=O)O` (stereo partly drawn) was tested, and the activity, negative = inhibition was inconclusive: 49.8% [activator].
`CCOc1ccccc1CNC(=O)CCNC(=O)Cn1ccc2ccccc2c1=O` was tested, and the Potency was “inactive”.
For `CCCCN(CC)CCNC(=O)CCC(=O)Nc1ccc2nc(N3CCN(C)CC3)cc(C)c2c1`, the Potency was inconclusive: 14.1 µM [inhibitor, partial curve].
In the case of `O=C(CNC(=O)c1ccco1)N=Nc1c(O)[nH]c2ccc([N+](=O)[O-])cc12`, the Potency is reported as “inactive”.
With `C#CCOCCOCCOCCNc1nc(N2CCN(C(=O)[C@H]([C@@H](C)CC)n3cc([C@@H](N)Cc4ccc(O)cc4)nn3)CC2)nc(N2CCN(C(=O)[C@H](CCCCN)n3cc([C@@H](N)CO)nn3)CC2)n1` the Potency was “inactive”.
In the case of `COc1ccc2nc3c(cc2c1)c(NC(=O)C1CCCO1)nn3CC(C)C` (stereo not drawn), the Potency is reported as inconclusive: 15.8 µM [inhibitor, single point].
`COc1cc(CNCc2ccccc2)ccc1OCC(O)c1ccccc1` (stereo not drawn) was tested, and the Potency was inconclusive: 15.8 µM [inhibitor, partial curve].
In the case of `CCn1ncc(C2=NOC(C(=O)Nc3ccc(C)cc3)C2)c1C` (stereo not drawn), the Potency is reported as “inactive”.
For `C=CCn1c(CSCc2ccc(F)cc2)n[nH]c1=S`, the Potency was inconclusive: 2 µM [inhibitor, full curve].
In the case of `O=C(Cc1nnc(NC(=O)c2ccccc2)s1)N/N=C\c1ccc(O)c(O)c1`, the Potency is reported as inconclusive: 28.2 µM [inhibitor, single point].
`Oc1ccc(N=C/C=C/c2ccc(Br)cc2)cc1-c1nc2ccccc2s1` was tested, and the Potency was inconclusive: 7.06 µM [inhibitor, partial curve].
`COc1cc(NS(=O)(=O)c2ccc([N+](=O)[O-])cc2)c2ncccc2c1` was tested, and the Potency was active: 17.7 µM.
With `C[C@H](NC(=O)c1nc[nH]c1C(=O)NCc1ccccc1)C(=O)OCc1ccccc1` the Potency was inconclusive: 7.08 µM [inhibitor, partial curve].
In the case of `COC(=O)C1C(=O)C2=C(CC1C)NC(C)=C(C(=O)OCCOc1ccccc1)C2c1ccc(C)o1` (stereo not drawn), the Potency is reported as “inactive”.
`CC1CC(C)CN(CCCOc2ccccc2[N+](=O)[O-])C1` (stereo not drawn) was tested, and the Potency was inconclusive: 15.8 µM [inhibitor, partial curve].
In the case of `Cc1nn(C(C)(C)C)c(C)c1/C=N/OC(=O)Nc1ccc(Cl)c(Cl)c1`, the Potency is reported as “inactive”.
For `CCn1c(NC(=O)c2cccs2)nc2ccccc21`, the Potency was inconclusive: 17.7 µM [activator, single point].
In the case of `COc1ccc(CNC(=O)[C@@H](C)NC(=O)[C@@H]2Cc3ccccc3CN2)cc1`, the Potency is reported as inconclusive: 22.4 µM [inhibitor, partial curve].
For `CCOc1ccc(NC(=S)NC(=O)c2cccnc2)c([N+](=O)[O-])c1`, the Potency was active: 8.91 µM.
`Cc1nc(SCc2ccccc2)[nH]c(=O)c1CC(=O)OCC(C)C` was tested, and the Potency was inconclusive: 15.8 µM [inhibitor, partial curve].
`Cc1ccc(C(C)C)c(OCc2ccc(C(=O)N/N=C/c3cccc(O)c3O)cc2)c1` was tested, and the Potency was inconclusive: 5.61 µM [inhibitor, full curve].
With `Cc1ccc(CNC(=O)CCc2cn(C)c3ccccc23)cc1` the Potency was “inactive”.
With `Cc1cc(Nc2ccc(Cl)cc2)n2ncnc2n1` the Potency was inconclusive: 35.5 µM [inhibitor, single point].
With `O=C(OCc1ccc(O)cc1)c1c(-c2ccsc2)oc2ccc(N3CCOCC3)cc12` the Potency was “inactive”.
`CC1CCC/C(=C\Nc2ccc(O)cc2)C1=O` (stereo not drawn) was tested, and the Potency was active: 7.92 µM.
`O=c1c2ccccc2n2c(=S)[nH]nc2n1-c1ccccc1` was tested, and the Potency was active: 7.08 µM.
`CC(C)N(CC#CCC1(O)c2ccccc2-c2ccccc21)CCO` was tested, and the Potency was inconclusive: 17.8 µM [inhibitor, partial curve].
`NS(=O)(=O)c1ccc(Nc2nc(-c3ccc(F)cc3)cs2)cc1` was tested, and the Potency was “inactive”.
In the case of `[O-]/C(=C(\C(=S)Nc1cccc2ccccc12)[n+]1ccccc1)c1ccc(OC(F)F)cc1`, the Potency is reported as active: 22.3 µM.
For `CC(C)=CCSc1nnc([C@@H](NC(=O)OC(C)(C)C)C(C)C)o1`, the Potency was inconclusive: 25.1 µM [inhibitor, partial curve].
`CNc1n[nH]c(=S)s1` was tested, and the Potency was active: 17.7 µM.
For `COc1ccc(C(=O)N2CCN(C3CCCCC3)CC2)cc1OC`, the Potency was inconclusive: 14.1 µM [inhibitor, partial curve].
In the case of `O=c1c2ccccc2oc2ccc(Oc3ccccc3)cc12`, the activity, negative = inhibition is reported as inconclusive: 46.3% [activator].
For `COc1cc(NC(=S)N2CCCC(C)C2)c(OC)cc1Cl` (stereo not drawn), the Potency was inconclusive: 19.9 µM [inhibitor, single point].
For `Nc1[nH]n2c(=O)cc(-c3ccccc3)nc2c1N=Nc1ccc2c(c1)OCO2`, the Potency was inconclusive: 2.23 µM [inhibitor, partial curve].
In the case of `Cc1[nH]c2ccccc2c1/C=N/NC(=O)c1cccc(S(=O)(=O)Nc2cccc(C(F)(F)F)c2)c1`, the Potency is reported as inconclusive: 25.1 µM [inhibitor, single point].
For `CCC1C(=O)N(c2nc(C)cc(C)n2)N=C1C` (stereo not drawn), the Potency was inconclusive: 19.9 µM [inhibitor, partial curve].
With `N#Cc1c(N2CCCC2)nc(N)c2c(N)nc(N3CCCC3)cc12` the Potency was inconclusive: 0.223 µM [inhibitor, full curve].
In the case of `COc1ccc(CN2CCN(Cc3ccc(C(F)(F)F)cc3)CC2)c(OC)c1`, the Potency is reported as inconclusive: 14.1 µM [inhibitor, partial curve].
For `COc1ccc(/C=C2\Oc3cc(OCC(N)=O)ccc3C2=O)cc1OC`, the Potency was “inactive”.
For `COc1ccc(C)cc1C(=O)CCC(=O)Nc1ccccc1N1CCOCC1`, the Potency was “inactive”.
With `COc1ccc(OCCCCN(C)Cc2ccccc2)cc1` the Potency was inconclusive: 15.8 µM [inhibitor, partial curve].
For `COc1ccc(CN(C)S(=O)(=O)c2nnc(NC(=O)c3cccc(OC)c3)s2)cc1`, the Potency was inconclusive: 25.1 µM [inhibitor, partial curve].
`CCOC(=O)C1CCCN(Cc2cccs2)C1` (stereo not drawn) was tested, and the Potency was inconclusive: 15.8 µM [inhibitor, partial curve, poor fit].
With `CC1(C)Cc2ccccc2C(NNC(=O)c2cccnc2)=N1` the Potency was “inactive”.
